We go through 79 compounds from PMC12040169 (PLOS Biology, 2025).

This is one part of the list.

The subject of this test is T1, C. trachomatis L2/434/Bu expressing GFP (CTL2-GFP).
T1 construct: L2/434/Bu GFP intracellular growth in HeLa cells
Also on record: species or system HeLa; C. trachomatis total inclusion area by high-content imaging, normalised to DMSO. The conditions noted are these: total inclusion area; 28.5 h, 10 µM; inhibitor. In short, it runs like this:
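After bulk GFP and resorufin fluorescence reads, cells were fixed, stained with Hoechst and imaged by high-content microscopy. Inclusion area and number (GFP) stood in for chlamydial growth, nuclei count (Hoechst) for host cell viability. MICs were derived as for the bulk readout.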
On to `CS(=O)(=O)N(CC(=O)O)c1ccc2c(c1)OCCO2` [CBK287151], for which the “% of control remaining” value was determined as 111.307.
As for `Cn1c(C(=O)O)cc2cc(Oc3ccccc3)ccc21` [CBK286873], the “% of control remaining” value is 95.5244.
Turning to `CCC1CCCCN1C(=O)c1cc(C)ccc1F` (stereo not shown) [CBK082754], the “% of control remaining” value came out at 114.781.
The value for `O=C(Cn1c(=O)oc2ccccc21)Nc1ccc(S(=O)(=O)Nc2nccs2)cc1` [CBK267686] was 89.3635.
The value for `CC(C)NC(=O)NC(=O)C1CCN(CCOc2ccc(Cl)cc2Cl)CC1` [CBK034949] was 91.4523.
As to `O=C(CSc1nnc(-c2cccnc2)n1-c1ccc(Br)cc1)Nc1ccc(F)cc1` [CBK266174], the “% of control remaining” value is on record as 108.93.
`CC(=O)c1ccc(-c2nccnc2NCC(O)COc2ccccc2)s1` (stereo not shown) [CBK036976]: the “% of control remaining” value is reported as 123.964.
For `O=C(CSc1nc2ccccc2c(=O)[nH]1)NCCO` [CBK266469] the value was 94.9342; for `CN(C)CCN(C)C(=O)c1ccc(-c2cc(C(F)(F)F)cc(C(F)(F)F)c2)nc1N(C)C` [CBK106069], 84.3788.
For `O=C1CCC(=O)N1CCN1C(=O)C2(CC(=O)N(CCC(F)(F)F)C2=O)c2ccccc21` (stereo not shown) [CBK076031] the value was 98.9763; for `CCN1CCc2cc(CN3CCCC(Cn4ccnc4C)C3)ccc21` (stereo not shown) [CBK281965], 93.0198.
For the compound `CNC(=O)CN1C[C@H](NC(=O)c2cccc3c2NCCC3)[C@@H](C(C)C)C1` [CBK307073], the “% of control remaining” value is 94.7563.
For `CCN(CCO)c1ccc(Nc2nc(-c3cccc4ccccc34)cn3ccnc23)cc1` [CBK066243] the value was 109.599; for `O=c1ccc(-c2ccc(F)cc2)nn1CC1CCNCC1` [CBK284216], 90.4472; for `O=C(Nc1ccccc1)OC1CCCCC1` [CBK015569], 55.2213.
Consider `CC(=O)Cn1cnc2c(cnn2-c2cccc(Cl)c2)c1=O` [CBK287692], for which the “% of control remaining” value is recorded as 98.3291.
On to `CC(C)C(=O)N1CCN(c2ccccc2NC(=O)c2ccc(N3CCCCC3)c([N+](=O)[O-])c2)CC1` [CBK267609], for which the “% of control remaining” value is on record as 106.552.
On to `O=C(O)c1ccccc1NS(=O)(=O)/C=C/c1ccccc1` [CBK042363], for which the “% of control remaining” value is 111.031.
The value for `O=C(CCSc1c(Cl)cccc1[N+](=O)[O-])Nc1ccc(Br)c2cccnc12` [CBK266777] was 96.4045.
The value for `CCOc1ncccc1C(=O)OCc1cc2ccc(OC)cc2nc1Cl` [CBK295289] was 93.8307.
The value for `O=C(O)c1ccc(CN2C[C@H](O)C[C@H]2c2nc(-c3ccc(F)cc3)no2)cc1` [CBK288870] was 108.5; that for `N#CCCCN1CCC(Oc2nccnc2OCc2cccc(Br)c2)CC1` [CBK153631] was 93.134; that for `O=C(NC1CC1)N1CCN(CCCOc2ccc(F)cc2)CC1` [CBK025077C] was 3.1399.
With `Cn1c(=O)c(C(=O)Nc2ccc(OCc3ccccc3F)cc2)nc2ccccc21` [CBK285820], the “% of control remaining” value is 96.3629.
On to `O=C(O)CC(C(=O)OC1CCCCC1)N1CCOCC1` (stereo not shown) [CBK265970], for which the “% of control remaining” value was found to be 135.835.
Regarding `O=C(Nc1ccc(=O)n2c1[C@@H]1C[C@@H](CN(C(=O)COc3ccccc3)C1)C2)c1cncnc1` [CBK288712], the “% of control remaining” value stood at 107.649.
The value for `COc1ccc(-n2ncc3c2CC(C)(C)CC3NS(C)(=O)=O)cc1` (stereo not shown) [CBK306759] was 85.7393; that for `O=C(NCCn1nc2c(cc1=O)CCCCC2)c1ccccc1` [CBK283278] was 115.025; that for `COc1cccc(C(=O)NCCC(=O)N2CCc3sccc3C2)c1` [CBK305376] was 55.9983.
On to `COc1ccc(Nc2nc(-c3cc(C(C)C)ccc3OC)cnc2N)c(C)c1` [CBK064098], for which the “% of control remaining” value is recorded as 109.411.
Consider `OCc1ccccc1-c1nccnc1NCc1ccco1` [CBK037098], for which the “% of control remaining” value turned out to be 105.929.
The value for `O=C1CCc2c(Cc3c(Cl)cccc3Cl)c(O)nn21` [CBK083470] was 84.0242; that for `Cc1sc2c(C3CCN(C(=O)C4CC4)CC3)nc(C)n2c1C` [CBK285298] was 83.1726; that for `COc1ccccc1NC(=O)C(c1ccccc1)N1CCOCC1` (stereo not shown) [CBK269561] was 86.2026.
The value for `COc1ccc(-c2c[nH]c([C@@H]3COCCN3Cc3ccc(C(=O)O)cc3)n2)cc1` [CBK289305] was 120.53; that for `CCN(CC)CCNc1c(N)c(=O)oc2ccccc12` [CBK261469] was 107.619; that for `O=C(O)c1ccc(CN2C[C@H](O)C[C@H]2c2nc(-c3ccccn3)no2)cc1` [CBK288869] was 116.525.
For `CSc1nnc2c(n1)[nH]c1ccccc12` [CBK025967] the value was 111.796; for `C=CCC1(CC=C)CCN1C(=O)c1cc(-c2ccccn2)n[nH]1` [CBK282448], 109.59; for `CCN(Cc1ccncc1)C(=O)Nc1ccc2[nH]ccc2c1` [CBK155136], 111.232.
`O=C(CSc1nnc(-c2ccccc2)n1-c1ccccc1)N/N=C/c1coc2ccccc2c1=O` [CBK262791]: the “% of control remaining” value stood at 94.4339.
The value for `COc1cccc2c3c([nH]c12)C1(CCN(CCOc2ccccc2)CC1)N(C=O)CC3` [CBK039423] was 72.5568; that for `CC(C)[C@H](CO)NC(=O)c1cnc(-c2ccc(Cl)cc2)c(-c2ccco2)c1` [CBK036658] was 83.6983; that for `Cc1ccccc1CSCC(=O)Nc1ccc(S(=O)(=O)N2CCCCC2)cc1` [CBK264006] was 51.9376.
As to `CC(C)(C)OC(=O)N1CCC(N(CCC(F)(F)F)Cc2ccc(-c3ccc(S(C)(=O)=O)cc3)nc2)CC1` [CBK167262], the “% of control remaining” value was 73.9062.
Take `COc1cc(-c2cnc3[nH]c(=O)n(CCc4ccncc4)c3n2)cc(OC)c1OC` [CBK064620]: the “% of control remaining” value turned out to be 113.409.
For `CC(=O)N1CCc2sccc2C1c1ccccc1NC(=O)C1CC1` (stereo not shown) [CBK282903] the value was 84.7862; for `Cc1cc(C)cc(OCc2nnc(SCC(=O)Nc3cc(C(F)(F)F)ccc3Cl)o2)c1` [CBK267890], 86.8753; for `COc1ccc(/C=N/c2cc(S(=O)(=O)c3ccc(O)c(/N=C/c4ccc(OC)c(O)c4)c3)ccc2O)cc1O` [CBK261223], 92.6746.
The value for `Cn1c(=O)oc2cc(NC(=O)CC3CCN(Cc4cccc(C(F)(F)F)c4)CC3)ccc21` [CBK285953] was 126.413; that for `Cn1cc(C(=O)NC2CCN(C(=O)c3cccc(C#N)c3)CC2)cn1` [CBK305673] was 37.427.
Regarding `Cc1nc(=O)c(-c2ccccc2)c(C)n1-c1ccc2cn[nH]c2c1` [CBK288193], the “% of control remaining” value stood at 82.9867.
For `NC(=O)CC[n+]1ccc2ccccc2c1` [CBK022857C] the value was 54.4536; for `NC1=NNC2=C(c3ccc(Cl)cc3Cl)NNN12` [CBK093660], 92.7528; for `O=C(c1ccc(F)cc1)[C@H]1CCCN(C(=O)c2cc(C3CC3)n[nH]2)C1` [CBK282410], 90.8136.
For `O=C(Nc1ccc2ncccc2c1)c1cccc(F)c1Cl` [CBK159800], the “% of control remaining” value stood at 91.3526.
The value for `CCN(CC)c1ccc(CN(CCCN(C)C)C(=O)NCC2CCCCC2)cc1` [CBK159392] was 59.2442; that for `O=C(NC1CCCC1)c1ccc2c(c1)C(=O)N(CC1CCCO1)C2=O` (stereo not shown) [CBK269777] was 75.5058; that for `CC(C)NC(=O)N1C[C@@H]2C[C@H](C1)c1ccc(-c3cccnc3)c(=O)n1C2` [CBK289184] was 119.84.
The value for `O=C(NCc1ccc(F)cc1)NC(=O)C1CCN(CCc2ccc(Br)cc2)CC1` [CBK034836] was 95.1984; that for `O=C(Nc1ccncc1)c1cnn(-c2ccc(Cl)cc2)c1C(F)(F)F` [CBK107441] was 110.991.
The value for `CC(C)(C)CC(=O)NS(=O)(=O)c1cccc(-c2nnco2)c1` [CBK305258] was 78.0636.
Take `Cn1c(N2CCOCC2)nc2cc(C(=O)NCCn3cccn3)ccc21` [CBK307033]: the “% of control remaining” value was found to be 67.2747.
The value for `CN(C)C(=O)COc1cccc(Nc2nc(-c3cccc4ccccc34)cn3ccnc23)c1` [CBK037393] was 127.195; that for `Nn1cnn2c(SCc3ccc(Cl)cc3)nnc12` [CBK263193] was 95.1434.
As to `CC1CCCN(CCCNS(=O)(=O)c2ccc(N3CCCC3=O)cc2)C1` (stereo not shown) [CBK304213], the “% of control remaining” value was 92.0926.
For `Brc1ccc2c(c1)COC1(CN3CCC1CC3)O2` (stereo not shown) [CBK105268] the value was 111.651; for `O=C1NCC2(C/C=C/CCOc3ccccc31)CCN(C(=O)Cc1cccc(F)c1)CC2` [CBK292015], 90.7576.
The value for `Cc1n[nH]c(C)c1-c1ccc2c(cnn2C)c1` [CBK307314] was 48.1253; that for `Cc1cc(NC(=O)C(C)(C)C)nc2c1c(=O)oc1ccccc12` [CBK287443] was 86.6134.
Take `CC(C)(C)OC(=O)N1CCC(C(=O)NC[C@H](CC(=O)O)c2ccc(Cl)cc2)CC1` [CBK286691]: the “% of control remaining” value amounted to 64.403.
Regarding `COc1ccc(Cl)cc1C1(CNC(=O)C2CCC(N)C2)CCOCC1` (stereo not shown) [CBK305523], the “% of control remaining” value worked out at 28.8238.
The value for `CS(=O)(=O)c1ccccc1C(=O)n1ccn(-c2cccc(C(F)(F)F)c2)c1=O` [CBK106584] was 83.9096.
For `CCOC(=O)COc1ccc(C#N)cc1OCC` [CBK058937] the value was 76.6355; for `CC(C)[C@H]1CN(Cc2ccco2)CCN1C(=O)N1CCOCC1` [CBK284273], 80.6909; for `Cn1ccnc1C(NC(=O)C1C2CCCCC21)c1ccc(F)cc1` (stereo not shown) [CBK281441], 89.1037.
The value for `CCN(CC)C(=O)Cn1nc(C)n2c(cc3sccc32)c1=O` [CBK284044] was 104.162; that for `O=C(c1nc2ccccc2s1)C1CCN(C(=O)CCc2ccc(-c3ccccc3)o2)CC1` [CBK286170] was 82.7832.
Regarding `Cc1cc(NC(=O)c2ccc(OC(C)C)cc2)no1` [CBK287575], the “% of control remaining” value is 96.9983.
